Out of some 310,000 compounds screened, about 2,200 (0.71%) showed an effect of 50% or more. Effects have a minus sign here. This is one part of the list.
target: human ether-à-go-go-related gene (hERG) potassium channel (human, UniProt Q12809); assay: primary screen, population patch clamp on CHO cells stably expressing hERG
Sequence (Q12809 whole entry, looked up): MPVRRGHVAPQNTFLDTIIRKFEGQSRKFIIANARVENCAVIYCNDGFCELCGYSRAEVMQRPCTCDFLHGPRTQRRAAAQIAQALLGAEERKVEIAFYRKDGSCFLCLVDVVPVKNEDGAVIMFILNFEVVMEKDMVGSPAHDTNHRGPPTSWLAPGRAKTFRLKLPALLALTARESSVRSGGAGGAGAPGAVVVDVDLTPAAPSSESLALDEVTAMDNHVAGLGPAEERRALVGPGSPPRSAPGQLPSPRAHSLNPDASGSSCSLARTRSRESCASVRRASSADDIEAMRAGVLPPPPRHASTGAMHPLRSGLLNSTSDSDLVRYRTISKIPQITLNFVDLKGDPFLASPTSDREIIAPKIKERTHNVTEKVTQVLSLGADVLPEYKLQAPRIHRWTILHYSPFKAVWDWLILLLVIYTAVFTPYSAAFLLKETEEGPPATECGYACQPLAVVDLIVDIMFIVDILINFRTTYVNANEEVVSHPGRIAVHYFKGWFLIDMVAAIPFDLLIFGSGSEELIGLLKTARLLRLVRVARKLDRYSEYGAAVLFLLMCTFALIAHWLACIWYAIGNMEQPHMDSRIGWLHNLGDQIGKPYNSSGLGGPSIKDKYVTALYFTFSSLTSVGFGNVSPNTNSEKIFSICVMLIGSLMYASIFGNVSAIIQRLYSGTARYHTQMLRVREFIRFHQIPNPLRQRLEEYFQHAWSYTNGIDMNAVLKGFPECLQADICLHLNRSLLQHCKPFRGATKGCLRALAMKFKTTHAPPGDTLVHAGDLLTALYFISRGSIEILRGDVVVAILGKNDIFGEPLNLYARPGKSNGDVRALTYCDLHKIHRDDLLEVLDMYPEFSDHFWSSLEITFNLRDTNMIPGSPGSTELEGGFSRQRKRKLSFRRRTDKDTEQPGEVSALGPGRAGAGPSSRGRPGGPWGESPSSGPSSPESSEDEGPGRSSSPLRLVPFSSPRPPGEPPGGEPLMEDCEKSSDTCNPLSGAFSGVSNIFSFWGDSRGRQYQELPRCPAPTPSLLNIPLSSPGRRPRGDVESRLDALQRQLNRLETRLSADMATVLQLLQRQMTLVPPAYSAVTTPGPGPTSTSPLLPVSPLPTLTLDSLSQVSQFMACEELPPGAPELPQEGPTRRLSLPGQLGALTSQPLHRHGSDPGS

Structure (SMILES) | hERG current change (%, negative = inhibition) at 1uM [%]
Cc1cccc(N2CCN(C(=O)C3CCN(c4ncnc5c4nc4n5CCCCC4)CC3)CC2C)c1 (stereo not shown) | 10.1
N#Cc1ccc(N2Cc3ccccc3C2=NC(=O)c2cccnc2Cl)cc1 | 5.16
CN(C)S(=O)(=O)c1ccc(NC(=O)COC(=O)C2CC3CCCC(C2)C3=O)cc1 (stereo not shown) | -0.434
CN(CC(=O)Nc1ccccc1Br)C(=O)CNC(=O)c1ccc2c(c1)OCO2 | 15.3
CSc1ccc(/C=C/C(=O)N2CCN(c3ccccn3)CC2)cc1 | 8.93
CC(C)C12CN3CC(C(C)C)(CN(C1)C3c1ccco1)C2=O (stereo not shown) | 13.7
COc1ccc(CNS(=O)(=O)c2cccc(S(=O)(=O)N3CCOCC3)c2)cc1 | -9.42
Cn1cc(CNC(=O)c2cc(COc3ccc4c(c3)CCCC4)on2)cn1 | 6.83
Cc1ccc(OCC(=O)NNC(=O)c2cccnc2)cc1 | 12
CCOC(=O)Nc1ccc2c(c1)Nc1ccccc1S2 | 9.07
Cc1cc(C)c2c(CC(=O)Nc3ccc(Cl)cn3)coc2c1 | -2.88
O=C(CCC(=O)Nc1ccc(F)cc1)N/N=C/c1ccc(O)cc1O | 7.85
CCOC(=O)c1c(NC(=O)C2CCN(S(=O)(=O)c3ccc(Cl)cc3)CC2)sc2c1CCCC2 | 7.04
COc1cc(/C=N/NC(=O)c2ccncc2)ccc1OCC(=O)Nc1cccc([N+](=O)[O-])c1 | 18.7
CSC(=S)N/N=C(\C)c1ccccc1 | 12
CCOc1ccc(-c2nc(CN3CCCCC3CCn3cccn3)c(C)o2)cc1 (stereo not shown) | -24.9
O=C(O)CCN(CCC(=O)O)S(=O)(=O)c1ccccc1 | 10.7
Cc1ccc(F)cc1NC(=O)CSCc1c(C)noc1C | 5.95
CC(C)c1cc(CNC(=O)C2CCC(=O)N(Cc3ccccc3F)C2)on1 (stereo not shown) | 14.8
CCCc1c(C(=O)N/N=C(/C)c2ccncc2)nnn1-c1nonc1N | 11.4
CCOCCCNC(=O)c1ccc2c(=O)n(Cc3ccc4c(c3)OCO4)c(=S)[nH]c2c1 | 23.3
CC1CC(N(C(=O)c2ccco2)c2ccccc2)c2ccccc2N1 (stereo not shown) | 11.7

Structure (SMILES) | hERG current change (%, negative = inhibition) at 1uM [%]
CCc1cccc(OCC(=O)Nc2ccccc2N2CCCC2)c1 | 5.49
Cc1cc(NC(=O)C(C)Oc2ccccc2)no1 (stereo not shown) | 14
CCOC(=O)c1ccc(NS(=O)(=O)c2cc(C)ccc2OC)cc1 | -11.5
Clc1ccc(-n2nnnc2SCc2cn3ccccc3n2)cc1 | 14.9
COCCC(=O)Nc1ccc2c(c1)CN(C(=O)CCOC)CC2 | 11.3
CN(c1ccc(C(=O)N2CCCCCC2)cc1)S(=O)(=O)c1ccc(Cl)cc1 | -8.67
O=C(/C=C/c1ccco1)N1CCN(S(=O)(=O)/C=C/c2ccccc2)CC1 | 0.172
Cc1cn2c(=O)c(C(=O)NCc3ccc4c(c3)OCO4)cnc2s1 | 10.7
OC(COc1ccccc1)CN1CCOCC1 (stereo not shown) | 14.3
Cc1ccc(NC(=O)Cc2nc(COC(=O)C(C)NS(=O)(=O)c3ccc(C)cc3)cs2)cc1 (stereo not shown) | -1.08
CCN(C(=O)CSc1nnc(C)n1-c1ccccc1)C1CCS(=O)(=O)C1 (stereo not shown) | 13
COc1ccc(NS(=O)(=O)c2ccc(OC)c(NC(=O)CCC3CCCC3)c2)cc1 | 0.976
O=C(O)CSc1ncnc2nc[nH]c12 | 8.63
CCOC(=O)N1CCN(C(=O)COC(=O)Cc2ccc(OC)cc2)CC1 | 11.7
CC1CCCC(C)N1CC(O)COCC1COc2ccccc2O1.Cl (stereo not shown) | -1.88
CCC(C)[C@H](NC(=O)OC(C)(C)C)C(=O)N/N=C/c1ccc2nccnc2c1 (stereo partly shown) | -6.23
O=C(O)COc1c(-c2ccccc2)oc2ccccc2c1=O | 8.93
O=C(Nc1nccs1)C1CC2CCC1C2 (stereo not shown) | 7.4
Cc1cc(Br)ccc1NC(=O)CN(C)C(=O)CSCc1ccccc1 | 4.67
O=C(Nc1nncs1)c1ccc(S(=O)(=O)c2ccccc2)cc1 | 7.42
Cn1c(NCc2ccccc2)nc2c1c(=O)n(Cc1ccc(Br)cc1)c(=O)n2C | 17.6
CC(=O)N1CCCc2cc(S(=O)(=O)N(C)Cc3ccccc3)ccc21 | 3.69

Structure (SMILES) | hERG current change (%, negative = inhibition) at 1uM [%]
Cc1cc(-c2nn(-c3ccccc3F)cc2CN2CCC(O)CC2)c(C)s1 | -0.852
Cc1ccc(NC(=O)CSCC#N)cc1 | 9.95
COCc1cc(OC(=O)N(C)C)nc2c1c(C)nn2C | 6.29
O=C(NCc1ccco1)C1CCN(c2nnc(-n3cccc3)s2)CC1 | -19.9
CCOc1ccccc1NC(=O)c1ccc2nccnc2c1 | 24.3
C/C(=N\Nc1cccc([N+](=O)[O-])c1)c1cc(F)ccc1O | 12.7
Cc1ccc(-c2csc3ncn(-n4c(C)ccc4C)c(=O)c23)o1 | 6.71
CCC(=O)c1cc(F)c(N2CCN(CC)CC2)cc1C | 8.74
Cc1ccc(C(=O)COC(=O)CCc2ccc(S(=O)(=O)N3CCCCC3)cc2)cc1 | 4.49
CCNc1nc(N2CCOCC2)nc(N(c2ccccc2)c2ccccc2)n1 | 5.11
COc1ccc(N2CCC(CNC(=O)Nc3ccc(C)c(C)c3)C2)cc1 (stereo not shown) | 10.3
CCCN(Cc1nnc(-c2ccccc2Cl)o1)C(=O)c1oc2ccccc2c1C | 19.9
Cc1ccc(C)c(N2CCN(C(=O)Cc3ccc(NC4=NC5CS(=O)(=O)CC5S4)cc3)CC2)c1 (stereo not shown) | 7.15
CCN(CC)S(=O)(=O)c1ccc(NS(=O)(=O)c2ccc(O)c([N+](=O)[O-])c2)cc1 | 7.67
Cc1cc(C)c(S(=O)(=O)N2CCN(S(=O)(=O)N3CCCCCC3)CC2)c(C)c1 | 9.03
CC(=O)Nc1cc(C(N)=O)c(Cl)cc1Cl | 1.43
COC(=O)C(C(=O)OC)C(C[N+](=O)[O-])c1ccc(OC)cc1 (stereo not shown) | 0.246
O=C(Nc1nc(-c2ccc(Cl)s2)cs1)c1cccs1 | 17.5
Cc1ccccc1C1CC(c2ccccc2OC(F)F)Nc2ncnn21 (stereo not shown) | 0.671
CSc1ccccc1OCc1cc(C(=O)N(C)CCc2c(C)n[nH]c2C)no1 | 9.05
Cc1onc(-c2c(Cl)cccc2Cl)c1C(=O)Nc1ccc2c(c1)OCCO2 | 11.5
Cc1ccc(S(=O)(=O)N/N=C\c2ccc3c(c2)OCO3)cc1C | -0.354

Structure (SMILES) | hERG current change (%, negative = inhibition) at 1uM [%]
O=C(c1ccncc1)N1c2ccccc2Sc2ccccc21 | 8.06
Cc1cc(C(=O)OCCO)c(C#N)c(N)n1 | 21.1
Cl.c1ccc(-c2cc(-c3ccncc3)nc3ccc4ccccc4c23)cc1 | 7.64
Cc1ccn2cc(-c3ccc(NC(=O)c4ccco4)cc3)nc2c1 | -5.16
Cc1sc(NC(=O)Cn2c(=O)oc3ccccc32)nc1-c1ccc(Cl)cc1 | 15.7
CC1CCC(NC(=O)C2c3ccccc3C(=O)N2CCCN2CCOCC2)CC1 (stereo not shown) | -0.483
Cc1ccccc1COC(=O)c1cc([N+](=O)[O-])ccc1N1CCOCC1 | 3.4
CC(Oc1cccc(Cl)c1)C(=O)N1CCN(c2ncccn2)CC1 (stereo not shown) | 2.38
O=C(NCC(=O)N1CCN(S(=O)(=O)c2ccccc2F)CC1)c1ccc2c(c1)OCO2 | 18.6
O=C(CSc1ncn(-c2ccccc2)n1)Nc1ccc2c(c1)OCCO2 | 9.75
O=C(CNC(=O)c1ccccc1F)NCCN1C(=O)S/C(=C\c2ccccc2Cl)C1=O | 1.82
Cc1ccc(-c2nc(CS(=O)(=O)CC(=O)N3CCOCC3)c(C)o2)cc1 | 19.1
O=C(Cc1ccc2c(c1)OCCO2)N1CCN(S(=O)(=O)c2cccc(C(F)(F)F)c2)CC1 | -11.8
COc1ccc(OCC(=O)N/N=C/c2ccc(O[C@@H]3O[C@H](CO)[C@@H](O)[C@H](O)[C@H]3O)cc2)cc1 | 10.5
Cc1c(OCC(=O)NCCCN2CCOCC2)ccc2c3c(c(=O)oc12)CCC3 | 19.2
N#Cc1c(NC(=O)COC(=O)C2CC3C=CC2C3)oc(-c2ccccc2)c1-c1ccccc1 (stereo not shown) | 12.5
Cn1ccc(NC(=O)Nc2cccc([N+](=O)[O-])c2)n1 | 5.63
COC(C(=O)Nc1ccnn1C1CCN(Cc2nccs2)CC1)c1ccccc1 (stereo not shown) | 12.3
COc1ccc(S(N)(=O)=O)cc1C(=O)NCC(C)(C)N1CCOCC1 | 8.54
COc1ccc(C#Cc2c(-c3ccsc3)oc3ccc(-c4cc(OC)c(OC)c(OC)c4)cc23)cc1 | -12.5
O=C(Nc1ccc(F)cc1)c1cc(S(=O)(=O)N2CCCCC2)cs1 | 7.53
Cc1cc(C)c(NC(=O)CSc2nncn2-c2cccnc2)c(C)c1 | 6.46

Reference: publication PMC4336329 (PLoS ONE, 2015)
